This note sets out measurements from the supplement of paper PMC11417369.

Some of the results follow.

The subject of this experiment is PfSIP2 AP2 domain 1 (GST-tagged). The experiment in a line: gcPBM binding intensity (ln(normalized median fluorescence intensity)); higher = stronger DNA binding. The essentials:
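Plasmodium falciparum DNA-binding domains carrying a GST tag were expressed in E. coli and applied for 1 h, at about 25 μg on average, to an Agilent 4 × 180k array. The array held primer-extended double-stranded 36-bp intergenic genomic probes together with negative controls, and binding took place in 1× PBS with 1% milk, 0.2 mg/ml BSA, 0.5% salmon testes DNA and 0.03% Triton X-100. An Alexa488 anti-GST antibody detected bound protein, and the array was scanned at 488 nm. Binding intensity is taken as the highest Masliner-normalised natural-log median intensity across replicate spots of either probe orientation.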
On to “AAAAAAAAAAAAATTACACACATACCTATAAGAATA [CACACA_site7097]”, for which the “gcPBM binding intensity (ln)” value came to 7.09.
The same measure for “TTTTCTTTTTTCTTTTTAACTCTTACATAATAGGTG [CACACA_negctrl_site642]”: 6.83; for “TAAAATGAATAAAATTGTACTTAATAATATTTTAAA [XGTACX_site5532]”: 6.55.
The same measure for “AATATATGTTAAAATGGTACACAATTATTATATATT [XGTACX_site6407]”: 6.93; for “AAAAAAAAAAAAAAGAGTACTTTTTTCACATTCATC [XGTACX_site8795]”: 7.17.
As for “TAAATCAAAAACAACAAGTCATATTAAAGATGGTAT [CACACA_negctrl_site1321]”, the figure is 7.01.
For the sequence CTTATAATATTACGGGTGCTATAAATACATTATATT, the “gcPBM binding intensity (ln)” value stood at 8.39.
Consider “TTGTTTCAAAATTAAACACACACAAAAAAAAAAAAA [CACACA_site8856]”, for which the “gcPBM binding intensity (ln)” value was determined as 7.19.
As for “AAGGAAAACAGTAGGTGTACCAAACGTCCTAGGAAC [XGTACX_site3659]”, the figure is 6.64.
As for “TATATTTATATCATCACACATTTTTTTTTTCTTTTT [CACACA_site6150]”, the figure is 6.58.
As for “GGATATATAAGATACACACACAAATTAAATATAAAA [CACACA_site7333]”, the “gcPBM binding intensity (ln)” value worked out at 7.03.
The same measure for “TAATATATAAATATATGTACATAATTAATAGGATAT [XGTACX_site237]”: 7.27; for “TATTCCTAATTTAAAAGTACATATATATATATATAT [XGTACX_site3008]”: 9.51; for TTTTTTAAATTTAAAGTGCATTATTATATATTTGTA: 8.06.
As for “AAAAAAGAAATAAGGATACACACTATTGATAAAAGT [CACACA_site272]”, the figure is 7.2; as for “CCAGTGTGCACCTTGCGTACATATTAAATTAATTAA [XGTACX_site3729]”, 12.2; as for “GGATAAGAAAAGAAGTGTACATATATATATATATAT [XGTACX_site8290]”, 9.42.
For the sequence “TTCTTTTAAAAATATATTTTAAGAAAATTTAATTTA [GTGCAC_negctrl_site237]”, the “gcPBM binding intensity (ln)” value is 6.89.
For the sequence “TTTATTTTTTGAAACACACACAAAAAAAATGATACA [CACACA_site1881]”, the “gcPBM binding intensity (ln)” value was 7.26.
The same measure for “AAAAAAAAAATATATATATATATATATATATATATA [GTGCAC_negctrl_site467]”: 9.51.
On to CAAAAAAAAAAACGGGTGCTAAATTTTATTTTTTAT, for which the “gcPBM binding intensity (ln)” value was determined as 8.63.
Regarding “ATAAAGCACACCGACACACACATATATATATATATA [CACACA_site1047]”, the “gcPBM binding intensity (ln)” value stood at 9.41.
With “TATCATGGTTCGGATTGTACATATATGAATTTTTTT [XGTACX_site7478]”, the “gcPBM binding intensity (ln)” value was 6.99.
The same measure for “TGATATTATAGATATACACACATGTATGTATTTATA [CACACA_site6758]”: 6.86; for “AAATTTAGTAAAAAATGTACGTAAAATGTAAAATAT [XGTACX_site1314]”: 7.48.
The same measure for “ATACTAACATTTTTTTGTACATATAACTATAAAATA [XGTACX_site1033]”: 7.32.
As to “AAGGTAAACGGACACACACACATACAAAAAAAAAAA [CACACA_site5961]”, the “gcPBM binding intensity (ln)” value was 7.43.
As for “TATATATTATATAAATAAATAAATATATATATTTAT [TGCATGCA_negctrl_site270]”, the figure is 7; as for “AATGATTTTGATTAACGTACGTACAAATATATATAT [XGTACX_site6604]”, 8.31.
The same measure for “AGACCTATGATATATACACACATATAAATAAATATA [CACACA_site6725]”: 6.99; for “TTATTAAATATAAATATGTATCTTTTATGTTATATT [CACACA_negctrl_site306]”: 6.75.
Turning to “TAAATCCGCAGGCACACACACATATTAATAAAAAAA [CACACA_site3991]”, the “gcPBM binding intensity (ln)” value came to 6.96.
For “TATTTTACGACATACCAAAAAAAAAAAAAAAAAATA [CACACA_negctrl_site1254]”, the “gcPBM binding intensity (ln)” value came out at 6.87.
As for “AAAAAAAAAAGACACACACACATAGACCTCCAATAG [CACACA_site7646]”, the figure is 6.75; as for “AATGTTAAACTATGATGTACGGTTAAAAATATAATT [XGTACX_site893]”, 7.21; as for “TCCTCATTTTATCATACACACTTGTTTATATGTGTG [CACACA_site6548]”, 7.03.
As for “ATATATAATAATTGTAGTACAATTAATAAATAAAAT [XGTACX_site3840]”, the figure is 7.08; as for “TATATATATATAATTTGTACACACAAATATGCATAT [XGTACX_site7297]”, 9.4; as for “AATATTTATAAATTTACACACACACCCGTGAACATA [CACACA_site1910]”, 6.94.
“TTATCATTTTAAATCACACACATATATAAATATGTA [CACACA_site7359]”: the “gcPBM binding intensity (ln)” value amounted to 6.95.
Turning to “ATACGATTGCAGTCAAAAAGGAAAATATAAAAAAAG [XGTACX_negctrl_site124]”, the “gcPBM binding intensity (ln)” value came to 7.29.
The same measure for “ATATATATGTATGTATATATATATATATATGTTTGA [CACACA_negctrl_site107]”: 7.53; for “TTAATAACGTAATGTAAATGTTTCATACCCTTTTTT [CACACA_negctrl_site988]”: 6.77; for “TTTTTTTTTCTGTATACACACAAAATTTATTTTTTA [CACACA_site2873]”: 6.77.
